According to article PMC10320511:
No constants are given. Whether binding was seen depends on the method and setting. Binding seen in cells or lysates may run through a third protein. Some results given as binding are weak or reduced against the parent protein; the word gives no strength. Sequences can lack the tags named with a protein.

Amino acid sequences for entries named in this document (tags omitted).
UniProt Q01371: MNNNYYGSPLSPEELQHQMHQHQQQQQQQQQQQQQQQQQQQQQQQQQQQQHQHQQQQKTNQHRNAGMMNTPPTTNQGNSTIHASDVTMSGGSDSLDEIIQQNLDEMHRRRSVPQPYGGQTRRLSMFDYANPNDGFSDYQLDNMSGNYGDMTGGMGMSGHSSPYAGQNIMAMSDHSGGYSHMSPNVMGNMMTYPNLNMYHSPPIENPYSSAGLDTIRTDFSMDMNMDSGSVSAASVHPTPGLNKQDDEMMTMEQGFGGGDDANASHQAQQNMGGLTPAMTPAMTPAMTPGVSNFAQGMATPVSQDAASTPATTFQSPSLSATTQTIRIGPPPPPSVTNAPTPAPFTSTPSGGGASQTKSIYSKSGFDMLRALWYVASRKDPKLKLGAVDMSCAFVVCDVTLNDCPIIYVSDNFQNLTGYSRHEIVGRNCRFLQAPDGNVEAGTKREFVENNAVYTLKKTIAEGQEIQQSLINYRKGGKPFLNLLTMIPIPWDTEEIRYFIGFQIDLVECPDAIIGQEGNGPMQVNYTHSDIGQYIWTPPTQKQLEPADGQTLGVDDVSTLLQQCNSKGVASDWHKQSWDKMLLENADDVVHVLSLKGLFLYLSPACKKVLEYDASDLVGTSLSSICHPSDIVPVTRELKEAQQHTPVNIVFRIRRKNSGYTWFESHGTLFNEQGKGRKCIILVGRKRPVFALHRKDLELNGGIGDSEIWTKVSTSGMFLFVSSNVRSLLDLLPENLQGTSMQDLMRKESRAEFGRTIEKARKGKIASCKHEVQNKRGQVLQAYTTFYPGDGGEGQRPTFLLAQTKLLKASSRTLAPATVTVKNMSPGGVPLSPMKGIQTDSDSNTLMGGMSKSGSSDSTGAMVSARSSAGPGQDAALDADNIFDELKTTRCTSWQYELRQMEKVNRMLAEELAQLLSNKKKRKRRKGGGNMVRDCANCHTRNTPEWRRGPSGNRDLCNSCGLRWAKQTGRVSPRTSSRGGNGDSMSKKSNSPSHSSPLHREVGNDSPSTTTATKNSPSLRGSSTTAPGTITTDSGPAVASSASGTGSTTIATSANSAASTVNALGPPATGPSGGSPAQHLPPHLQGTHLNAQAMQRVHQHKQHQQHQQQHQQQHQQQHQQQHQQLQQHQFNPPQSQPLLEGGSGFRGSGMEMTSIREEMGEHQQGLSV

How the values were obtained:
Assay in all cases: co-IP; V5H6-tagged FRQ (wild type or mutant) pulled down with V5 agarose from Neurospora lysate (cultures in the light, 25 °C); 50 mM Hepes pH 7.4, 137 mM NaCl, 10% glycerol, 0.4% NP-40; 4 °C, 2 h; Western blot with FRQ, FRH, WC-1 and WC-2 antibodies
[1] = biological target: T1, FRQ E835D, V5H6-tagged (Neurospora crassa) (UniProt P19970)
T1 sequence: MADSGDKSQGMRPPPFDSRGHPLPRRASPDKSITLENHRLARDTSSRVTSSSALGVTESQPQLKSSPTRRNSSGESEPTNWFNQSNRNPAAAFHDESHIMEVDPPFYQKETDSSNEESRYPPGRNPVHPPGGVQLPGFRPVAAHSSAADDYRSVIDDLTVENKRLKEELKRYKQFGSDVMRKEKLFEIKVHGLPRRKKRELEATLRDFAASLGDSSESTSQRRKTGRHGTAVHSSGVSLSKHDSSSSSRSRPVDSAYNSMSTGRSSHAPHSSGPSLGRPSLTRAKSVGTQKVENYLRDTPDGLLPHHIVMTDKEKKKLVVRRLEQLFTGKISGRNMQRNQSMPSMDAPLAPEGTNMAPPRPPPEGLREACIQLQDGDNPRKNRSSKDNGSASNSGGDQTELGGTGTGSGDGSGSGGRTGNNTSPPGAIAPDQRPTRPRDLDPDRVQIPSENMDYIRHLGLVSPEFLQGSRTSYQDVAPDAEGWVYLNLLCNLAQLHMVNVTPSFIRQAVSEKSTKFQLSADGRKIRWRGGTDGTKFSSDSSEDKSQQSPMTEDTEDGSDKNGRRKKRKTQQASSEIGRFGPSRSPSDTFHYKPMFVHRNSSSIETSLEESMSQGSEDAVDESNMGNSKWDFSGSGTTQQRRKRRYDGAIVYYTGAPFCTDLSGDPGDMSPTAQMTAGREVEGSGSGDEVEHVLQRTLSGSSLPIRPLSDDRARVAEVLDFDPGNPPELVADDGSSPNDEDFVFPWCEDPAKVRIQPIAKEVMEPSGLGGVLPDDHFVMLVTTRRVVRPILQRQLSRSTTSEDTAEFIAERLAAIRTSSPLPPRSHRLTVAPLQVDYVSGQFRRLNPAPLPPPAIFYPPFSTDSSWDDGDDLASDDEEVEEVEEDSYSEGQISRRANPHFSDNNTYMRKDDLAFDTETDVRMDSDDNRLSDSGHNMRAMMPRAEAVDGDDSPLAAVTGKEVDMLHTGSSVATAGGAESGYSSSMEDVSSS

[2] = biological target: T2, FRQ Δ801–856, V5H6-tagged (Neurospora crassa) (UniProt P19970)
T2 sequence: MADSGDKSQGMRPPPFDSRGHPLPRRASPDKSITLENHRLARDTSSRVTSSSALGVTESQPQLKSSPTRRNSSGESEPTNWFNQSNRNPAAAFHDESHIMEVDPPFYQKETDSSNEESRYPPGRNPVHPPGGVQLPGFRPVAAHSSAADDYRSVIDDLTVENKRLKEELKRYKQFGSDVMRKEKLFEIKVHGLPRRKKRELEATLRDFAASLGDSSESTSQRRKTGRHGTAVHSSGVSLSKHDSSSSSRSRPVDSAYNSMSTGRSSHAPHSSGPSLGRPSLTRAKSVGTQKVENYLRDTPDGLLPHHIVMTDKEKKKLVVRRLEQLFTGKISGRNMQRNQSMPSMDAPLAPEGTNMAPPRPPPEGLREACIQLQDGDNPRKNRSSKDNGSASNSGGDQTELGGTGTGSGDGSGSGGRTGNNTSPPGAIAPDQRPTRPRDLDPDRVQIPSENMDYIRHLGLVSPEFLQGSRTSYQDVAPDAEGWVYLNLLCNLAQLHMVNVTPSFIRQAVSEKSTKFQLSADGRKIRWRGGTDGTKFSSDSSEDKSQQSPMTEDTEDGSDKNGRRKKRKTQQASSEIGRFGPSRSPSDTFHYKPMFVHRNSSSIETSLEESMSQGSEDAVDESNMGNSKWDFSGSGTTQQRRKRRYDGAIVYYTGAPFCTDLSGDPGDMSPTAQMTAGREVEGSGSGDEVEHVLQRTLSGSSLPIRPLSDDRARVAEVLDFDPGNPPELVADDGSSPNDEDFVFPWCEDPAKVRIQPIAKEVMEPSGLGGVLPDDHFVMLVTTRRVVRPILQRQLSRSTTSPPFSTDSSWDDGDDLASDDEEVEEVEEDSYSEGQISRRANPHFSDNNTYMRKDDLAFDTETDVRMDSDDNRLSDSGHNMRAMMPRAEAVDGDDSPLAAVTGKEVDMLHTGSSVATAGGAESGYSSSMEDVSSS

[3] = biological target: T3, FRQ 1–558, V5H6-tagged (Neurospora crassa) (UniProt P19970)
T3 sequence: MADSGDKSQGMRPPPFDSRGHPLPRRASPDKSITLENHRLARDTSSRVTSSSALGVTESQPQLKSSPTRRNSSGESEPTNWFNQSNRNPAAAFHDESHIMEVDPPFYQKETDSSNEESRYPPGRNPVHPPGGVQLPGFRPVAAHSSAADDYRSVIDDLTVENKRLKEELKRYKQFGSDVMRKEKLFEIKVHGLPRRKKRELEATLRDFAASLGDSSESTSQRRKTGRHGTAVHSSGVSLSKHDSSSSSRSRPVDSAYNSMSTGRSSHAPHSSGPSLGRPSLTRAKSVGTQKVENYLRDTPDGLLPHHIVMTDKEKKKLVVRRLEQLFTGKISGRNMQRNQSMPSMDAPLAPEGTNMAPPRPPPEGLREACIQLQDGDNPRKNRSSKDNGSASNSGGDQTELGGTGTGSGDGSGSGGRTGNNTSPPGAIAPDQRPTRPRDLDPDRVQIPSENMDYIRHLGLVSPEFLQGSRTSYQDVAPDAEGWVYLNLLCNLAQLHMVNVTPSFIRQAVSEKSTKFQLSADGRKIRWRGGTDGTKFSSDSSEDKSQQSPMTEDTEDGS

## White Collar-1 (WC-1) (from UniProt Q01371 1-1167)
[1]
  binding: binds
[2]
  binding: no binding
[3]
  binding: no binding
